Results reported in PubChem BioAssay AID1508624 (National Center for Advancing Translational Sciences (NCATS), 2021).
About 120 (0.25%) of roughly 48,000 compounds were called active. Not shown: some 4% with an inconclusive outcome. Calls follow the shape of the dose curve; as a rule, active = well fitted activation curve with a large enough effect; inconclusive = small, poorly fitted or top-dose-only effect, or another doubt; inactive = no such curve, though single readings can be large or run the other way. Some of the results follow.

Test: Primary qHTS for Identification of Small Molecule Activators of Huntingtin-Antisense Promoter Activity; also: nearly all actives have a fitted effect of over 55% in size
Details: HEK293 HTT-AS promoter firefly luciferase reporter, 24 h; series mostly up to 57.5 µM; activity change, positive = activation: at the top concentration
Method in brief: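 Firefly luciferase signal from promoter-reporter HEK293 cells was scaled between vehicle (0%) and zero RLU (-100%). Compounds were tested at final concentrations of up to 57.5 uM over 24 h at 37 degrees C. PTC124 at 50 uM final served as control inhibitor.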

Activity change, positive = activation, inactive:
CCCOc1cccc(C2c3c(oc4ccc(F)cc4c3=O)C(=O)N2CCc2ccc(OC)cc2)c1 (stereo not given) -6.44%, COc1ccc(-c2noc(CSc3nc4ccc(C)cc4[nH]3)n2)cc1 -35.1%, O=C(Cn1nc(Cc2cccnc2)c2ccccc2c1=O)Nc1ccc(F)c(Cl)c1 -39.2%, COc1cccc(CNC(=O)c2sc3ncccc3c2-n2c(C)ccc2C)c1OC -34.6%, COc1ccc(C(=O)NCC(c2ccc(Cl)cc2)N2CCCCC2)cc1 (stereo not given) -8.19%, COc1ccccc1CNC(=O)Cn1nc(C)n2cccc2c1=O -2.16%, CCC(C(=O)Nc1cc(C(F)(F)F)ccc1Cl)n1nc(C)c2sc3ccccc3c2c1=O (stereo not given) -8.92%, O=C(Cn1cnc2onc(-c3ccc(F)cc3)c2c1=O)N1CCN(c2ccc(F)cc2)CC1 -23.5%, Cc1ccc(Cc2c(C)nc3nc(SCC(=O)NCCC(C)C)nn3c2C)cc1 8.62%, Cc1nn(C)c(C)c1S(=O)(=O)N(CC(=O)Nc1ccc(F)cc1F)c1ccc(C(C)C)cc1 -34.1%, COc1ccc(NC(=O)Cn2c(=O)n(-c3ccc(C)cc3)c(=O)c3c2c2cc(C)ccc2n3C)cc1 2.12%, O=C(CN1C(=O)CCn2nc(-c3ccccc3)cc21)NCc1ccccc1 -11.1%, COc1cccc(CNC(=O)C(=O)NCC(c2ccco2)S(=O)(=O)c2ccccc2)c1 (stereo not given) -37.3%, COc1ccc(C2CC(=O)c3cc(-c4nc(-c5cccc([N+](=O)[O-])c5)cs4)c(=O)n(-c4cccc(C)c4)c3C2)cc1 (stereo not given) -3.81%, Cc1ccc(NC(=O)CSc2nc3ccc(NC(=O)c4ccco4)cc3s2)cc1 -22%, Cc1ccc(NC(=O)CSc2nc(=O)n(Cc3ccccn3)c3c2CCC3)cc1F -46%, COC(=O)c1c(NC(=O)Cc2coc3cc(C)cc(C)c23)sc2c1CCC2 -18.5%, COc1cc(C(=O)NCc2ccc3c(c2)CCN3C(=O)c2ccc(Cl)cc2)cc(OC)c1OC -24.3%, COCCNC(=O)c1c(NC(=O)c2cc(=O)c3cc(C)cc(C)c3o2)sc2c1CCCC2 0.521%, O=C(Nc1ccccc1Cl)N1CCC2(CC1)Oc1ccccc1C(=O)N2Cc1ccc(F)cc1 -26.8%, CCc1ccc(NC(=O)c2cnc3c(-c4ccccc4)c(C)nn3c2C)cc1 -17.9%, CC(=O)c1ccc(NC(=O)c2ccc(-c3nc(CSc4ccc(C)cc4)c(C)o3)cc2)cc1 -23.7%, COc1cccc(Cn2c(C)c(CNCc3cccc(C)c3)c(C(=O)O)c2C)c1 -20.5%, COc1ccccc1CNC(=O)CCn1c(=O)c2ccccc2n(CC(=O)Nc2cc(Cl)ccc2C)c1=O 1.61%, CCOC(=O)c1ccc(N2C(=O)c3[nH]nc(-c4ccc(OC)cc4)c3C2c2cccc(O)c2)cc1 (stereo not given) -88%, CCc1cccc(NC(=O)CSc2ncc3c(n2)-c2cc(Cl)ccc2N(C)S3(=O)=O)c1 -6.18%, COc1ccccc1NC(=O)Cn1nnc(C(=O)NCc2cccs2)c1N -31.9%, O=c1cc(COc2ccccc2Cl)nc2scc(-c3ccccc3)n12 -9.93%, Cc1ccc(C2NC(=O)c3n[nH]c(-c4cccs4)c32)cc1 (stereo not given) -18.5%, Cc1ccc(Cl)cc1N1CCN(C(=O)Cn2nc(C)c3sc4ccccc4c3c2=O)CC1 12.5%, CCC(C)NC(=O)CCSc1nc(-c2ccc3c(c2)OCO3)cc(C(F)(F)F)n1 (stereo not given) -27.6%, COc1ccc(NC(=O)CCS(=O)(=O)c2nc(-c3ccc4c(c3)OCO4)cc(C(F)(F)F)n2)cc1OC -31.8%, O=C(Nc1cccc(C(=O)OCc2cc(=O)n3c4c(sc3n2)CCCC4)c1)c1cccc(F)c1 -7.07%, C[C@]12C=CC(=O)C=C1[C@@H](F)C[C@@H]1[C@@H]2[C@@H](O)C[C@@]2(C)[C@H]1CC[C@]2(O)C(=O)CO -5.69%, CCc1ccc(S(=O)(=O)Nc2ccc3c(c2)sc(=O)n3C)cc1 -14.6%, Cc1ccc(Cl)cc1NC(=O)CN1C=NS(=O)(=O)c2ccccc21 -15.7%, Cc1cccc(Cn2c(=O)n(-c3cc(C)cc(C)c3)c(=O)c3oc4ccccc4c32)c1 -18.7%, CCc1nn(CCCC(=O)NCc2ccccc2OC)c(=O)c2cc3occc3n12 -8.49%, Cc1cc(C)c2c(n1)nn1c(C)c(CCC(=O)Nc3cccc(C)c3C)c(C)nc21 5.86%, Cc1ccc(Cl)cc1N1CCN(C(=O)C2CCN(S(=O)(=O)c3cn(C)cn3)CC2)CC1 -9.88%, Cc1cccc(N2CCN(CCCNC(=O)Cn3ncc4c([nH]c5ccccc54)c3=O)CC2C)c1 (stereo not given) -5.71%, COc1ccc(N(C)C(=O)Cn2cnc3sc(C)c(S(=O)(=O)N4CCN(c5ncccn5)CC4)c3c2=O)cc1 -2.07%, O=C(NCCS(=O)(=O)N1CCN(c2cccc(Cl)c2)CC1)C(c1ccccc1)c1ccccc1 -10.5%, CCc1nn(CC(=O)NCc2ccccc2)c(=O)c2cccn12 -1.96%, CCOCCCn1c(=N)c(C(=O)NC2CCCCC2)cc2c(=O)n3ccccc3nc21 -5.45%, O=C(CSc1nc2ccccc2nc1Cc1ccccc1)N1CCc2ccccc21 -2.91%, Cc1cccc(-c2nc3c4ccccc4nc(N4CCN(c5cccc(Cl)c5)CC4)n3n2)c1 11.5%, COc1ccc(-c2c3c(nc4sc(C(=O)Nc5cccc(OC)c5)c(N)c24)CC(C)(C)CC3=O)cc1 12.6%, CCc1ccccc1NC(=O)Cn1c(=O)n(CCc2ccccc2)c(=O)c2sc3ccccc3c21 0.604%, CC1(O)CC(c2nc(-c3ccc4ccc(-c5ccccc5)nc4c3)c3c(N)nccn23)C1 (stereo not given) -21.3%, NC(=O)NC(=O)Cc1ccccc1 -7.61%, COc1ccc(CCNC(=O)c2ccc(Cn3c(=O)c4cccn4c4cccnc43)cc2)cc1OC -24.2%, Cc1cc(C(=O)N2CCN(c3ccccc3F)CC2)c2c(C)nn(-c3ccccc3)c2n1 -33.6%, Cc1cc(C)n2nc(CNS(=O)(=O)c3cccc(Cl)c3)nc2n1 -5.68%, CCCCN(C)C(=O)CSc1c2c(nc3ccc(Cl)cc13)CCCC2 -17%, CCC(C)NC(=O)c1ccc(CNS(=O)(=O)c2ccc3c(c2)C(C)(C)C(=O)N3C)cc1 (stereo not given) -15.8%, Cc1cc(C)c2oc(-c3cccc(NC(=O)c4cccc(F)c4)c3C)nc2c1 -10.7%, CCOCCCNC(=O)c1ccc2c(=O)n(CCc3ccccc3)c(=O)[nH]c2c1 8.56%, CCc1ccc2oc(-c3cc(NC(=O)c4cc(OC)c(OC)c(OC)c4)ccc3O)nc2c1 15%, COc1cccc(N2CCN(C(=O)c3cnn(-c4ccccc4Cl)c3C3CCN(C(=O)OC(C)(C)C)CC3)CC2)c1 -21.8%, CCCCc1ccc(NS(=O)(=O)c2cc3c4c(c2)CC(=O)N4CCC3)cc1 -35.4%, COc1cc(Nc2ncc(F)c(Nc3ccc4c(n3)N(COP(=O)(O)O)C(=O)C(C)(C)O4)n2)cc(OC)c1OC -26.2%, COc1cccc(NC(=O)C2CCC(CNS(=O)(=O)c3csc(C(N)=O)c3)CC2)c1 (stereo not given) 10.3%, CC(=O)c1ccc(NC(=O)CSc2nc(=O)n(Cc3ccccn3)c3c2CCC3)cc1 -22.9%, COc1cccc(-c2cn3c(n2)sc2cc(C(=O)NC4CCCCC4)ccc23)c1 -15.5%, CCc1ccccc1Nc1nn2c(=O)c3ccc(C(=O)NC(C)C)cc3nc2s1 -15.1%, CCN(CCCNC(=O)c1cc2c(=O)n(C)c3ccccc3c2s1)c1ccccc1 -15.6%, COc1cc(NC(=O)C2CCN(c3cnccn3)CC2)cc(OC)c1 -5.38%, O=C(Cn1c(=O)n(Cc2ccco2)c(=O)c2oc3ccccc3c21)Nc1ccccc1 -13%, COc1ccc(-c2cc(=O)c3c(O)cc(O[C@@H]4O[C@H](CO[C@@H]5O[C@@H](C)[C@H](O)[C@@H](O)[C@H]5O)[C@@H](O)[C@H](O)[C@H]4O)cc3o2)cc1O -1.48%, COc1ccccc1N1CCN(C(=O)C2CCN(S(=O)(=O)c3cn(C)cn3)CC2)CC1 -0.303%, COc1ccccc1NC(=O)CN1C(=O)C(c2ccc(F)cc2)=NC12CCCCC2 -26.5%, COc1ccc(C(CNC(=O)c2oc3cc(C)c(C)cc3c2C)N2CCCCC2)cc1 (stereo not given) 6.25%, Cc1ccc(Nc2nc(N)nc(CSc3nc4ccccc4s3)n2)cc1 -21.2%, CCn1cc(C(=O)N2CCN(c3ccccc3)CC2)c(=O)c2cc(S(=O)(=O)N(C)C)ccc21 15.2% [at 11.5 µM, percent change from vehicle, -100% = no light], Cc1c2cnn(CC(=O)NCc3ccc(Cl)cc3)c(=O)c2c(C)n1Cc1ccc(F)cc1 -24.3%, O=C(Cc1ccc(F)cc1)NCCc1csc2nc(-c3ccccc3F)nn12 -10.9%, COc1ccc(CCNS(=O)(=O)c2c(C)nc3sccn3c2=O)cc1OC -13.4%, Cc1ccccc1Nc1nn2c(=O)c3ccc(C(=O)NCc4cccs4)cc3nc2s1 -20.6%, Cc1cc(NS(=O)(=O)c2ccc(NC(=O)COc3ccccc3Br)cc2)no1 -9.85%, Cc1cc(C)cc(NC(=O)CSc2ccc(-c3cccs3)nn2)c1 -30.6%, COc1ccc(CCNc2ncnc3c2cnn3-c2ccc(C)c(Cl)c2)cc1 8.1%, Cc1ccc(NS(=O)(=O)c2ccc3oc(=O)c4ncn(C)c4c3c2)cc1C -13.1%, O=C(CCC1N=C2c3ccccc3N=C(SCc3ccc(Cl)cc3)N2C1=O)NCc1cccs1 (stereo not given) 3.77%, COc1ccc(OCC(O)Cn2c(=N)n(CCN3CCCCC3)c3ccccc32)cc1 (stereo not given) -12.3%, O=C(CCc1ccccc1)NC1CC(=O)N(c2cccc(F)c2)C1 (stereo not given) -0.903%, COc1ccccc1C(=O)n1nc(-c2ccccc2)nc1NCc1ccc(Cl)cc1 -1.58%, CCC(=O)N1CCc2cc(S(=O)(=O)NC(CC(C)C)C(=O)Nc3cccc(C)c3C)ccc21 (stereo not given) 0.481%, CN(C)c1ccc(CNC(=O)CN2C(=O)C3CCCCN3c3ccc(C(=O)N4CCCC4)cc32)cc1 (stereo not given) -15.4%, Cc1ccc(S(=O)(=O)C(CNC(=O)C(=O)NCCc2ccc(Cl)cc2)c2ccco2)cc1 (stereo not given) -23.5%
